Data published in the supplement of paper PMC6746778.
The other results are listed elsewhere or left out. Many values rest on one well or one pass, so single values are uncertain.

Key:
Experiment in all cases: proliferation Z-score within cell line (SRB, relative to all inhibitors screened on that line); triple-negative breast cancer lines and a kinase inhibitor library; SRB is the sulforhodamine B protein stain; higher = less growth inhibition (more resistant)
Conditions in all cases: concentration: 1 µM; 4 days
Bt20 = system: Bt20
Bt549 = system: Bt549
HCC1143 = system: HCC1143
HCC1806 = system: HCC1806
HCC1937 = system: HCC1937
HCC38 = system: HCC38
HCC70 = system: HCC70
Hs578T = system: Hs578T
MDA-MB-231 = system: MDA-MB-231
MDA-MB-435s = system: MDA-MB-435s
MDA-MB-436 = system: MDA-MB-436
MDA-MB-453 = system: MDA-MB-453
MDA-MB-468 = system: MDA-MB-468
SKBR7 = system: SKBR7
SUM1315MO2 = system: SUM1315MO2
SUM149PT = system: SUM149PT
SUM159PT = system: SUM159PT
SUM185PE = system: SUM185PE
SUM229PE = system: SUM229PE
SUM52PE = system: SUM52PE
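Further: Single-dose primary screen of a 378-member kinase inhibitor library in 96-well plates, with growth read as absorbance of protein-bound SRB dye after TCA fixation.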

Compound | proliferation Z-score within cell line (Bt20) | proliferation Z-score within cell line (Bt549) | proliferation Z-score within cell line (HCC1143) | proliferation Z-score within cell line (HCC1806) | proliferation Z-score within cell line (HCC1937) | proliferation Z-score within cell line (HCC38) | proliferation Z-score within cell line (HCC70) | proliferation Z-score within cell line (Hs578T) | proliferation Z-score within cell line (MDA-MB-231) | proliferation Z-score within cell line (MDA-MB-435s) | proliferation Z-score within cell line (MDA-MB-436) | proliferation Z-score within cell line (MDA-MB-453) | proliferation Z-score within cell line (MDA-MB-468) | proliferation Z-score within cell line (SKBR7) | proliferation Z-score within cell line (SUM1315MO2) | proliferation Z-score within cell line (SUM149PT) | proliferation Z-score within cell line (SUM159PT) | proliferation Z-score within cell line (SUM185PE) | proliferation Z-score within cell line (SUM229PE) | proliferation Z-score within cell line (SUM52PE)
OCCn1cc(-c2ccc3c(c2)CC/C3=N\O)c(-c2ccncc2)n1 | 0.878 | 0.57 | 0.73 | 0.886 | 0.659 | 0.00835 | 0.511 | 0.478 | 0.952 | -1.47 | 0.309 | 0.242 | 1.13 | 0.553 | 0.616 | 0.824 | 0.271 | 0.314 | 1.27 | -0.691
Cn1cnc(-c2cc3nccc(Oc4ccc(NC(=S)NC(=O)Cc5ccccc5)cc4F)c3s2)c1 | 0.774 | 0.575 | 1.02 | 1.12 | 1.23 | 0.517 | 0.71 | 0.574 | 0.818 | 0.76 | 0.749 | 0.898 | 1.01 | 1.02 | 0.644 | 1.24 | 0.801 | 0.655 | 0.372 | 0.219
Cc1[nH]c(/C=C2\C(=O)Nc3ccc(S(=O)(=O)Cc4c(Cl)cccc4Cl)cc32)c(C)c1C(=O)N1CCC[C@@H]1CN1CCCC1 | 0.532 | 0.608 | 0.306 | 0.276 | 0.588 | 0.485 | 0.842 | 0.681 | 0.619 | 0.77 | 0.735 | 1.13 | 1.06 | 1.87 | 0.975 | 0.534 | 0.559 | 0.991 | -0.0706 | 0.905
NC(=O)Nc1sc(-c2ccc(F)cc2)cc1C(N)=O | 0.881 | 0.569 | 0.843 | 0.0104 | 0.495 | 0.622 | 0.589 | 0.828 | 0.543 | 0.237 | 0.0082 | 0.886 | 0.36 | 0.346 | 0.342 | 0.332 | 0.74 | 0.979 | 1.16 | 1.13
O=C(NCc1cccc(O)c1)Nc1nc(-c2ccncc2)cs1 | -0.187 | 0.0878 | 0.195 | 0.29 | 0.265 | 0.105 | 0.0844 | 0.382 | -0.493 | 0.0627 | 0.52 | 0.429 | 0.181 | 0.424 | -0.409 | 0.284 | -0.0124 | -0.0874 | -0.0123 | 0.224
S=C(NCc1ccc2c(c1)OCO2)N1CCN(c2ncnc3c2oc2ccccc23)CC1 [Amuvatinib (MP-470)] | -0.573 | 0.361 | -0.532 | 0.31 | -0.389 | 0.399 | 0.427 | 0.582 | -0.00596 | 0.0898 | 0.268 | 0.353 | -0.281 | -0.194 | 0.332 | -0.514 | 0.44 | -0.168 | 0.297 | 0.0495
COc1cc2c(Nc3ccc(NC(=O)c4ccccc4)cc3)ncnc2cc1OCCCN1CCOCC1 | 0.526 | 0.279 | 0.939 | 0.714 | 0.602 | 0.491 | 0.859 | 0.581 | -0.388 | 0.389 | 0.3 | 0.592 | 0.218 | 1.13 | 0.691 | 0.653 | 0.529 | 0.437 | 0.226 | 0.548
NC1(C(=O)N[C@@H](CCO)c2ccc(Cl)cc2)CCN(c2ncnc3[nH]ccc23)CC1 | -2.32 | -1.31 | -0.0425 | 0.237 | -1.35 | -0.681 | -2.74 | -1.68 | 0.588 | 0.253 | -0.402 | -1.82 | -1.55 | -0.537 | 0.505 | -1.59 | -0.32 | -1.73 | 0.494 | -0.365
COc1ccc(CNC(=O)Nc2ncc([N+](=O)[O-])s2)cc1 | -0.419 | -1.4 | -0.443 | -1.3 | -1.15 | -2.04 | -1.16 | -1.45 | 0.556 | 0.0803 | 0.00877 | -1.67 | -0.263 | -1.34 | 0.32 | 0.528 | 0.443 | 0.501 | 0.506 | 0.554
CCOc1ccn(-c2ccc(F)cc2)c(=O)c1C(=O)Nc1ccc(Oc2ccnc(N)c2Cl)c(F)c1 | 0.836 | 0.863 | 0.903 | 0.768 | 0.778 | 0.558 | 0.832 | 0.598 | 0.691 | 0.564 | 0.543 | 0.829 | 0.912 | 0.925 | 0.668 | 0.984 | 0.557 | 0.527 | 0.423 | 0.639
CC(C)(C)Cn1c(N)nc2ccc(-c3[nH]c(C(C)(C)C)nc3-c3ccc(F)cc3)nc21 | 0.229 | 0.348 | 0.495 | -0.455 | 0.568 | 0.569 | 0.71 | 0.785 | 0.261 | 0.564 | 0.542 | 0.861 | 0.578 | 0.622 | 0.0848 | 0.381 | 0.705 | 0.554 | 0.39 | 0.333
Cc1c(F)cc(C(=O)NC2CC2)cc1-c1ccc(C(=O)NCC(C)(C)C)cn1 | 0.691 | 0.589 | 0.246 | 0.258 | 0.133 | 0.39 | 0.48 | 0.322 | 0.75 | 0.288 | -0.0686 | 0.456 | 0.602 | -0.5 | 0.336 | 0.392 | 0.141 | 0.693 | 0.712 | 0.629
